# Measurements: PubChem BioAssay AID1347165 (National Center for Advancing Translational Sciences (NCATS), 2019)
# The campaign covered roughly 220,000 compounds. About 5,700 (2.6%) were called active. This list was built around the results that the source calls inconclusive (neither active nor inactive); the mix of calls is not that of the screen. Calls follow the shape of the dose curve; as a rule, active = well fitted inhibition curve with a large enough effect; inconclusive = small, poorly fitted or top-dose-only effect; inactive = no such curve, though single readings can be large or run the other way. A potency beside an inconclusive call is a rough fit, not a confirmed value.
# Target: Lysine-specific demethylase 5B (Homo sapiens) (UniProt Q9UGL1)
# Chain of UniProt Q9UGL1 (Q9UGL1 whole entry, looked up): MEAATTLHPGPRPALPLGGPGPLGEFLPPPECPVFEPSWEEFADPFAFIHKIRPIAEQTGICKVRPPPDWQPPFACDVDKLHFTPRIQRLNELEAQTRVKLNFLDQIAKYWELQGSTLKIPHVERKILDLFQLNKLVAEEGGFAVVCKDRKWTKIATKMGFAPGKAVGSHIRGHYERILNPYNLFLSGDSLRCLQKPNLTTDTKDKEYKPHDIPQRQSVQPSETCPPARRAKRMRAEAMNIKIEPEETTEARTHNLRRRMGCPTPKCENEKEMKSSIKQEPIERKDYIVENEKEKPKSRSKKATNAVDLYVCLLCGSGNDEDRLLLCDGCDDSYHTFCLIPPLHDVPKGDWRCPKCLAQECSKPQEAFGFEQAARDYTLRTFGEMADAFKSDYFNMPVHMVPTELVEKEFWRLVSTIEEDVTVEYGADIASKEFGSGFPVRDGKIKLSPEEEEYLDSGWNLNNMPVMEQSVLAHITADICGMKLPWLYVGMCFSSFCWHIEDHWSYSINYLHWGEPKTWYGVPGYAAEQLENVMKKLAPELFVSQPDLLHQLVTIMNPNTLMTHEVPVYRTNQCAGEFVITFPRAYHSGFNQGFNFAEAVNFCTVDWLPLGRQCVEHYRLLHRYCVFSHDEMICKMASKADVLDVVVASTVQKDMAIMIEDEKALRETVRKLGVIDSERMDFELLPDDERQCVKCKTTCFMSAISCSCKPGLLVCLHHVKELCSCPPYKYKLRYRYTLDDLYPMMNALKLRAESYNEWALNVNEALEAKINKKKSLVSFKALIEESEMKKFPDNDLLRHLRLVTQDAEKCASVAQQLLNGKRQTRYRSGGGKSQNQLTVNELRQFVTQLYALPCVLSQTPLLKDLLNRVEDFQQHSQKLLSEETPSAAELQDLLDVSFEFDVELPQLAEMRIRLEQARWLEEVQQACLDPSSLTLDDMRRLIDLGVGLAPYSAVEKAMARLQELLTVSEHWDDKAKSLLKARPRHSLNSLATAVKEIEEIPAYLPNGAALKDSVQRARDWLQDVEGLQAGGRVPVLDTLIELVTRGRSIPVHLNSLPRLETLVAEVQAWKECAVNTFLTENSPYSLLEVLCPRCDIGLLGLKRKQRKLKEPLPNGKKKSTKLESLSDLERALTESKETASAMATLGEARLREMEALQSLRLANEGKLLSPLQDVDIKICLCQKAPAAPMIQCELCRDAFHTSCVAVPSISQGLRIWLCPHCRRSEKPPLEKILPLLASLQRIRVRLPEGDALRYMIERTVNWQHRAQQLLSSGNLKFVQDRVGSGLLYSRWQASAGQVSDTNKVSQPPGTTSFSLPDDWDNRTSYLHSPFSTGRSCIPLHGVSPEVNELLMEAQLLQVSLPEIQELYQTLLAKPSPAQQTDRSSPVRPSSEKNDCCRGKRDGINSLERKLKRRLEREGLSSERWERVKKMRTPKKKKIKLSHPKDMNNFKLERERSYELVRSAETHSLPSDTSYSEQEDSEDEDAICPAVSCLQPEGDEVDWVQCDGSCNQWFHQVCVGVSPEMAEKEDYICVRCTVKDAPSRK
# Test: Primary screen for KDM5B Histone Demethylases FDH-coupled qHTS; also: nearly all actives have a fitted effect of over 70% in size
# Settings: FDH-coupled NADH fluorescence (FDH is formaldehyde dehydrogenase); series mostly up to 57.7 µM
# Procedure, shortened: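 KDM5BΔAP (200 nM final) in 50 mM HEPES pH 7.5, 0.01% Tween-20 was preincubated 10 min at RT with compound over a concentration range. Substrate mix (H3K4me3 12.5 µM, α-KG 25 µM, Fe²⁺, ascorbate, NAD⁺, FDH) was added, and NADH fluorescence change over 30 min gave dose-response curves.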
# Potency is read from the fitted curve at half-maximal effect; tags tell the direction and shape of the fitted curve.
row,Compound,Potency
1,Cc1nc2scc(CC(=O)N3CCOCC3)n2c(=O)c1-c1cc(C)n(-c2ccc(F)cc2)n1,"inconclusive: 25.1 µM [inhibitor, partial curve, poor fit]"
2,Cc1cc(=O)n(CC(=O)Nc2cc(Cl)ccc2C)c(N2CCN(c3ccccc3)CC2)n1,"inconclusive: 22.4 µM [inhibitor, single point]"
3,Cc1ccc(NC(=O)C(C)C)cc1Cl,inactive
4,Fc1ccc(N/N=C/c2ccc(-c3ccccc3)cc2)c(F)c1,"inconclusive: 39.8 µM [inhibitor, partial curve, poor fit]"
5,Cc1ccc(Nc2nc(-c3ccc([N+](=O)[O-])cc3)nc3ccccc23)cc1,inactive
6,Cc1ccc(NC(NC(=O)c2ccco2)C(=O)c2ccccc2)cc1 (centres undefined),inactive
7,O=C(COC(=O)c1ccc(-c2ccc([N+](=O)[O-])cc2)o1)Nc1ccc(Cl)cc1C(F)(F)F,inactive
8,C/C=C/Cn1c(NCCO)nc2c1c(=O)[nH]c(=O)n2C,inactive
9,CC(=O)Nc1ccc(C2C(C#N)=C(N)OC3=C2C(=O)CC(C)(C)C3)cc1 (centres undefined),inactive
10,CCN(C(=O)COC(=O)c1cc2ccccc2oc1=O)c1ccccc1,"inconclusive: 25.1 µM [inhibitor, partial curve, poor fit]"
11,Cc1ccsc1C(=O)N1CCc2nnc([C@@H]3C[C@@H](O)CN3C)n2CC1,inactive
12,CN(C)c1ccc(-c2noc(-c3nc(-c4ccc5c(c4)OCO5)no3)n2)cc1,inactive
13,O=C(Cn1ncn2nc(-c3cccs3)cc2c1=O)NCc1ccc(Cl)cc1,inactive
14,CCc1cccc(C)c1NC(=O)Cn1nc2n(c1=O)CCCCC2,inactive
15,Cc1cccc(-c2[nH]ncc2CNC(=O)c2cccc(N(C)C)c2)c1,active: 28.2 µM
16,Cc1ccc2nc(SCCC(=O)N[C@@H]3C[C@@H]4OCC[C@@H]43)cc(C)c2c1,inactive
17,COCCCn1c(=N)c(C(=O)NCc2ccco2)cc2c(=O)n3cccc(C)c3nc21,"inconclusive: 3.98 µM [inhibitor, full curve, poor fit]"
18,Fc1ccc(CNc2ncccn2)cc1,"inconclusive: 28.2 µM [inhibitor, single point]"
19,CCc1ccccc1NC(=O)Nc1cc(C(=O)NCc2cccc(F)c2)ccc1N1CCCC1,"inconclusive: 35.5 µM [inhibitor, single point]"
20,CN1C(=O)CCC2(CNC(=O)Nc3ccccc3)CCC=C12 (centres undefined),"inconclusive: 28.2 µM [inhibitor, partial curve]"
21,CC(C)Cc1nn2c(=O)cc(CSc3nnc(-c4ccccc4F)o3)nc2s1,"inconclusive: 39.8 µM [inhibitor, single point]"
22,CC(Sc1ncc(-c2ccc(Br)cc2)n1C)C(=O)NC(N)=O (centres undefined),inactive

row,Compound,Potency
1,Cc1cccc(NC(=O)N2CCCC(c3nnnn3C)C2)c1 (centres undefined),inactive
2,COc1ccc(NC(=O)N2C[C@@H]3C[C@H](C2)c2ccc(NC(=O)c4ccccn4)c(=O)n2C3)cc1,"inconclusive: 15.8 µM [inhibitor, partial curve]"
3,COc1ccc(C(C2C(=O)CC(C)(C)CC2=O)C2C(=O)CC(C)(C)CC2=O)cc1,"inconclusive: 25.1 µM [inhibitor, partial curve, poor fit]"
4,COCCNC(=O)CCn1c(=O)c2cc(OC)c(OC)cc2n(CC(=O)Nc2ccccc2C)c1=O,"inconclusive: 3.55 µM [inhibitor, full curve, poor fit]"
5,Cc1ccc(C(=O)N2CCc3cc(CNC(=O)c4ccc(Br)cc4)ccc32)cc1,"inconclusive: 28.2 µM [inhibitor, partial curve, poor fit]"
6,CN1CCN(c2ccc3ncc(Nc4cccc(C(F)(F)F)c4)n3n2)CC1,"inconclusive: 35.5 µM [inhibitor, single point]"
7,Cc1ccccc1-c1nc(CS(=O)(=O)CC(=O)NCCc2ccccc2)c(C)o1,"inconclusive: 1.58 µM [inhibitor, full curve, poor fit]"
8,Cc1ccc(C(C)CCN2CCC(n3nccc3NC(=O)Cc3ccccc3)CC2)o1 (centres undefined),"inconclusive: 25.1 µM [inhibitor, partial curve, poor fit]"
9,Cc1ccc(S(=O)(=O)NC2CC2)cc1C(=O)Nc1ccc(N2CCCCC2)c2ccncc12,"inconclusive: 14.1 µM [inhibitor, partial curve, poor fit]"
10,C/C(Cl)=C\CNCc1ccco1,inactive
11,CCc1noc(-c2cn(C3CCN(C(=O)c4cccc(Cl)c4)CC3)nn2)n1,inactive
12,Cc1nnc([C@@H]2CC(F)(F)CN2S(=O)(=O)c2cccc(F)c2)o1,inactive
13,O=C(NCCOc1ccccc1)[C@@H]1C[C@@H](c2ccc(F)cc2)N([S+](=O)([O-])c2ccccc2)C1,inactive
14,CC(OC(=O)c1ccc2c(c1)NC(=O)CS2)C(=O)NCc1ccccc1 (centres undefined),inactive
15,CCN1CCCc2cc(CN(CCN3CCOCC3)C(=S)Nc3ccccc3OC)ccc21,"inconclusive: 28.2 µM [inhibitor, partial curve, poor fit]"
16,CC(C)c1ccc(CC(=O)N2CCCc3ncc(C(=O)NCCN(C)C)cc32)cc1,inactive
17,Cc1noc2c(-c3cccnc3N3CC(O)C3)cc(-c3ccccc3)nc12,"inconclusive: 35.5 µM [inhibitor, partial curve, poor fit]"
18,COc1ccc(-c2cc(C(=O)NC(C)c3ccccc3)c3cc(C(C)C)ccc3n2)cc1 (centres undefined),"inconclusive: 39.8 µM [inhibitor, single point]"
19,CCOC(=O)c1c(NC(=O)c2cc(OCC)c(OCC)c(OCC)c2)sc2c1CCCCC2,"inconclusive: 2.24 µM [inhibitor, partial curve, poor fit]"
20,COc1ccc(S(=O)(=O)NCCc2sc(-c3cccnc3)nc2C)c(F)c1,"inconclusive: 28.2 µM [inhibitor, partial curve, poor fit]"
21,CC(C)C1=NOC2(CCN(Cc3cccc4ccccc34)CC2)C1,"inconclusive: 39.8 µM [inhibitor, partial curve, poor fit]"
22,COc1ccc(CNC(=O)C[C@@H]2CCNC[C@@H]2Cc2cc(-c3ccc(C(C)(C)C)cc3)on2)cc1,"inconclusive: 25.1 µM [inhibitor, single point]"
